In PubChem BioAssay AID624417 (National Center for Advancing Translational Sciences (NCATS), 2012):
About 6,400 (1.6%) of roughly 410,000 compounds were called active. The shares of active, inactive and inconclusive entries below differ from those in the screen. The call rests on the fitted dose curve; in most records, active means well fitted inhibition curve with a large enough effect; inconclusive means small, poorly fitted or top-dose-only effect; inactive means no such curve, though single readings can be large or run the other way. Potencies beside an inconclusive call are fits to weak or partial responses and may not hold up.

Biological target: Glucagon-like peptide 1 receptor (Homo sapiens) (UniProt P43220)
Sequence of UniProt P43220 (P43220 whole entry, looked up): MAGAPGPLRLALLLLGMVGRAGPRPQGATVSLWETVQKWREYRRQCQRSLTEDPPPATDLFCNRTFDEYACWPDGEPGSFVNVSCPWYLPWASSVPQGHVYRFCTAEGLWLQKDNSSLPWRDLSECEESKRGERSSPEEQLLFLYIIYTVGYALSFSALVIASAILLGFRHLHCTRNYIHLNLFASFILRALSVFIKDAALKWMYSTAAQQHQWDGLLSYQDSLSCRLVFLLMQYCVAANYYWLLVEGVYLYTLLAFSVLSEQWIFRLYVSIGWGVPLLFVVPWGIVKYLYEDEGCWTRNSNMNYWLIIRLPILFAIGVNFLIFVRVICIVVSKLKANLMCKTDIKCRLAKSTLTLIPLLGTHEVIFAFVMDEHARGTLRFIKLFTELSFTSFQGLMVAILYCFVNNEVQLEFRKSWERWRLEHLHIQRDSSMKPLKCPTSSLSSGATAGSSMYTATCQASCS
Test: qHTS of GLP-1 Receptor Inverse Agonists (Inhibition Mode); further: nearly all actives have a fitted effect of over 55% in size
Settings: HEK293 GLP-1R CRE-luciferase, luminescence, 24 h, GLP-1R form is constitutively active; activity change, negative = inhibition: at 38.3 µM (top of the series) unless noted
Outline: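 qHTS in 1536-well format: reporter HEK293 cells expressing constitutive GLP-1R activity in DMEM + 10% Nu serum, 24 hr with compounds at 37 deg C, luminescence read after 12 min with detection reagent.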
On the % scale 0 is the no-effect control and ±100 the full control effect; potency means the concentration at half of the fitted maximal effect; tags describe the fitted curve by direction and shape.

Activity change, negative = inhibition, inactive:
CC1CN(C(=S)Nc2ccc(SC(F)F)cc2)CC(C)O1 (configuration not stated) -21.2%, COc1cc(OC)c(OC)cc1/C=N/NC(=S)NCCN1CCOCC1 27.6%, Cc1ccc(NC(=O)CCC(=O)N2CCSc3ccccc32)cc1Cl -28.4%, CC1CCN(CCCCOc2ccccc2[N+](=O)[O-])CC1 -0.632%, Cc1c(NC(=O)c2cccc3c(Cl)cccc23)cccc1-c1nc2ccccc2o1 26.1%, O=c1cc(Cn2nnc(-c3ccc(Cl)cc3)n2)nc2sccn12 0%, COc1ccc(C(=O)N/C(=C\c2cn(C)c3ccccc23)C(=O)NCCCN2CCOCC2)cc1OC 11.6%, Cc1c(N=Cc2ccncc2)c(=O)n(-c2ccccc2)n1C 6.06%, COC(=O)c1ccc(NC(=O)CSc2ncc3c(n2)-c2cc(Cl)ccc2N(Cc2ccccc2)S3(=O)=O)cc1 -1.29%, O=C(c1cc(-c2cccs2)nc2ccccc12)N1CCN(S(=O)(=O)c2ccccc2)CC1 -8.99%, O=C1C2C3C=CC(C3)C2C(=O)N1c1n[nH]c(-c2cccnc2)n1 (configuration not stated) 0.878%, O=C(Nc1ccc(OC(F)(F)F)cc1)Oc1ccccc1N1CCOCC1 -16.1%, COc1ccccc1OCc1cc(-c2ccccc2)no1 0.963%, Nc1c(C(=O)NC2CC2)c2nc3ccccc3nc2n1-c1ccc2c(c1)OCO2 0.429%, Cn1ncc(Cl)c1C(=O)Nc1ccncc1 18.7%, Cc1cc(NC(=O)c2cccc(Cl)c2)n[nH]1 1.45%, CCOC(=O)CCSc1nc(-c2ccc3c(c2)OCO3)cc(C(F)(F)F)c1C#N 4.39%

Activity change, negative = inhibition, inconclusive:
Cc1cccc(NC(=O)Cn2cnc3c(oc4ccccc43)c2=O)c1 -32.5% [inhibitor] [at 7.66 µM]

Potency, inconclusive:
Cc1c(NC(=O)C(C)(C)Oc2ccc(Cl)cc2)cccc1-c1nc2ncccc2o1 22.4 µM [inhibitor, single point], Cc1ccc2nc(-c3cccc(Cl)c3)c(Cc3ccccc3)n2c1 8.91 µM [inhibitor, partial curve, poor fit], O=C(C1=C[C@@H](c2coc3ccccc3c2=O)C[C@@H](OCc2ccc(CO)cc2)O1)N1CCN(Cc2ccccc2)CC1 8.91 µM [inhibitor, partial curve, poor fit], N#Cc1ccc(C2=CC(=O)C[C@H](c3ccc4c(c3)OCO4)C2)cc1 7.94 µM [inhibitor, partial curve, poor fit], O=C(Nc1ccccc1)C1CC(=O)N(c2ccc3c4c(cccc24)CC3)C1 (configuration not stated) 5.62 µM [inhibitor, full curve, poor fit], Oc1c(Cl)cc(Cl)c(Cl)c1Cc1c(O)c(Cl)cc(Cl)c1Cl 2.82 µM [inhibitor, full curve], CC1=C(C(=O)OCc2ccccc2)C(c2ccccc2-c2ccccc2)NC(=O)N1CCCCCC(=O)O (configuration not stated) 20 µM [inhibitor, single point], N#C/C(=C\c1cccc([N+](=O)[O-])c1)C(=O)NCc1ccc(Cl)cc1 20 µM [inhibitor, single point], COc1ccc2c(c1)c(=O)c(S(=O)(=O)c1ccc(C)cc1)cn2Cc1ccccc1C 22.4 µM [inhibitor, single point], COC(=O)c1sccc1S(=O)(=O)N(CC(=O)Nc1c(C)cccc1C)c1ccc(C)c(C)c1 28.2 µM [inhibitor, single point], COC(=O)C(C)n1nnc2sc(-c3ccccc3)cc2c1=O (configuration not stated) 7.94 µM [inhibitor, partial curve, poor fit], COc1cc(C(=S)N2CCOCC2)cc(OC)c1OC(=O)c1ccc(C)cc1 12.6 µM [inhibitor, single point], CCC(C(=O)Nc1cc(F)ccc1F)n1nc(-c2cc(C)ccc2C)ccc1=O (configuration not stated) 10 µM [inhibitor, single point], C[C@@H](C(=O)NCc1ccccn1)[C@H]1C[C@]1(C)[C@H](NC(=O)OCc1ccccc1)c1ccccc1 6.31 µM [inhibitor, partial curve, poor fit], O=C(C[C@@H]1C[C@H]2c3cc(NC(=O)c4cccnc4)ccc3O[C@H]2[C@H](CO)O1)NCc1ccc(Oc2ccccc2)cc1 8.91 µM [inhibitor, partial curve, poor fit], CCCN(CCC)S(=O)(=O)c1ccc(C(=O)Nc2nnc(COC)o2)cc1 28.2 µM [inhibitor, single point], CCN(CC(=O)NCc1ccc(Cl)cc1)C(=O)c1cc(S(=O)(=O)NCc2ccccc2)ccc1C 8.91 µM [inhibitor, partial curve, poor fit], COCCOc1ccc(C(F)(F)F)cc1NC(=O)Cc1ccc(S(=O)(=O)N2CCOCC2)s1 12.6 µM [inhibitor, single point], O=C(COC(=O)C12CC3CC(CC(O)(C3)C1)C2)Nc1cccc(Br)c1 2.51 µM [inhibitor, partial curve, poor fit], CC(C)c1ccc(NC2CCCN(C(=O)c3ccc(N4CCOCC4)cc3)C2)cc1 (configuration not stated) 11.2 µM [inhibitor, partial curve, poor fit], O=[N+]([O-])c1ccc(N2CCN(C(=S)Nc3cccc(F)c3)CC2)cc1 17.8 µM [inhibitor, single point], CCOc1ccc(CCNC(=O)c2ccc(CS(=O)Cc3cccc(Cl)c3)o2)cc1 (configuration not stated) 11.2 µM [inhibitor, partial curve, poor fit], CC(Oc1cccc(NC(=O)c2cccs2)c1)C(=O)c1ccccc1 (configuration not stated) 28.2 µM [inhibitor, single point], Cc1ccc(S(=O)(=O)N(C)C[C@@H]2Oc3ccc(NC(=O)Nc4cccc5ccccc45)cc3C(=O)N([C@H](C)CO)C[C@H]2C)cc1 2.82 µM [inhibitor, partial curve, poor fit], Cc1cccc(N2CC(C(=O)Nc3cccc(S(=O)(=O)N4CCCCC4)c3)CC2=O)c1C (configuration not stated) 12.6 µM [inhibitor, single point], CC1Oc2ccccc2C=C1/C=N/NC(=O)c1ccncc1 (configuration not stated) 3.55 µM [inhibitor, single point], CC(Sc1cn(CCNC(=O)c2ccccc2F)c2ccccc12)c1ccccc1 (configuration not stated) 28.2 µM [inhibitor, single point], CCOC(=O)C(C(=O)OCC)C(Nc1ccc(Br)cc1)c1ccccc1 (configuration not stated) 28.2 µM [inhibitor, single point], CC(Oc1ccc(F)cc1)C(=O)Nc1ccc(N2CCOCC2)cc1N1CCOCC1 (configuration not stated) 31.6 µM [inhibitor, single point], CCN(CCCNC(=O)CSc1cc(=O)n(CC)c2ccccc12)c1cccc(C)c1 10 µM [inhibitor, single point], O=C(Nc1ccc(Nc2ccccc2)cc1)Nc1ccccc1Cl 6.31 µM [inhibitor, partial curve, poor fit], CC1CCCN(C(=O)c2sc3cc([N+](=O)[O-])ccc3c2Cl)C1 (configuration not stated) 11.2 µM [inhibitor, single point], Cc1ccc(C)c(OCC(=O)Nc2ccc(S(=O)(=O)Nc3onc(C)c3C)cc2)c1C 2 µM [inhibitor, partial curve, poor fit], CCCc1c(-c2ccc(O)cc2)nn(-c2ccc(O)cc2)c1-c1ccc(O)cc1 11.2 µM [inhibitor, partial curve, poor fit], O=C(Nc1ccc(C(=O)N2CCCC2)cc1)c1cccc(C(F)(F)F)c1 31.6 µM [inhibitor, single point], COc1ccccc1CC(=O)Nc1ccc(S(=O)(=O)N2CCCC2)cc1 7.94 µM [inhibitor, partial curve, poor fit], Fc1cccc(-c2cc3nc(-c4ccccc4)cc(N4CCC5(CC4)OCCO5)n3n2)c1 1.26 µM [inhibitor, full curve, poor fit], Cc1ccc(C)c(-n2cc(-c3ccc(Cl)cc3)nc2SCC(=O)NC2CCS(=O)(=O)C2)c1 (configuration not stated) 28.2 µM [inhibitor, single point], Cc1ccc(Sc2ccc(/C=C3/C(=O)NN(c4ccccc4)C3=O)o2)cc1 0.316 µM [inhibitor, full curve, poor fit], COc1cccc(-c2csc(NC3OC(=O)c4c3ccc(OC)c4OC)n2)c1 (configuration not stated) 31.6 µM [inhibitor, single point], C=CCN1c2ccccc2[C@]23C[C@@H](C(=O)OC)N(C(=O)c4ccc(Br)cc4)C2=NC(C(=O)OC)=C(C(=O)OC)[C@H]13 11.2 µM [inhibitor, partial curve, poor fit], COc1ccc(CN2C(=O)CC(C(=O)NCCc3ccc(S(N)(=O)=O)cc3)SC2=Nc2ccccc2)cc1 (configuration not stated) 11.2 µM [inhibitor, partial curve]

Potency, active:
COCC(=O)OC/C(O)=C(\C#N)c1nc2ccccc2[nH]1 5.01 µM, O=C(NCc1cccnc1)/C(=C\c1ccc(-c2cccc(Cl)c2)o1)S(=O)(=O)c1ccccc1 2 µM
